Measurements: PubChem BioAssay AID761 (NMMLSC, 2007)
About 400 (0.21%) of roughly 190,000 compounds were called active. Inconclusive means that the source gave no clear call. Such entries were picked first, then a sample of the others.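 The calls were made as follows: active = percent activity GTP binding at least 20 points away from the 100% baseline, either down as inhibitor or up as activator; inconclusive = compound flagged as likely green fluorescent from well-wide comparison; inactive = the rest.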

target: Cell division control protein 42 homolog (Homo sapiens) (UniProt P60953); experiment: wildtype Cdc42 fluorescent GTP binding changes, either direction – biochemical, multiplex bead flow cytometry, Bodipy-GTP, primary screen (AID 761); conditions: GST-Cdc42 beads, at 10 µM, actives lie on both sides;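 also: median bead fluorescence of bound Bodipy-FL-GTP at 100 nM; 0% = excess unlabeled GTP control and 100% = no compound control; below 100% means less GTP binding so inhibitor and above means activator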
Chain of UniProt P60953 (P60953 whole entry, looked up): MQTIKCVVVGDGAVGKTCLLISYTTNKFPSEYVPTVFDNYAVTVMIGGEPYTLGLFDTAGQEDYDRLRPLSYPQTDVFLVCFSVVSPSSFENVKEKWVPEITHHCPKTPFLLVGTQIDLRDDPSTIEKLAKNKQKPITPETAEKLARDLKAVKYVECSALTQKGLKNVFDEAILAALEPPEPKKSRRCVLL

Compound	percent activity (GTP binding)
COc1ccc(C(CC(=O)O)n2cnnn2)cc1 (stereo unspecified)	inconclusive: 99%
O=C(Nc1ccc(Br)cc1F)C1CCCO1 (stereo unspecified)	inconclusive: 101%
COc1ccc(NC(=O)/C(Cl)=C(/Cl)S(=O)Cc2ccccc2Cl)cn1 (stereo unspecified)	inactive: 99%
CCc1cc2c(N3CCN(c4nnc(CC)s4)CC3)ncnc2s1	inconclusive: 96%
CC(=O)OCC1OC(n2ccc(=O)[nH]c2=O)C(O)C1O (stereo unspecified)	inconclusive: 105%
COc1ccc(/C=C2\SC(N3CCc4ccccc4C3)=NC2=O)cc1OC	inactive: 100%
O=C(NCc1ccccc1Cl)c1ccccc1Oc1ccccc1	inactive: 101%
COC(=O)C1=NN(C(=O)c2cccc(Br)c2)C(O)(c2ccc(Cl)cc2)C1 (stereo unspecified)	active: 78%
COCCn1c(=S)[nH]c2cc(C(=O)N3CCc4ccccc4C3)ccc2c1=O	inactive: 104%
COc1cc(N=c2oc3c(C)ncc(CO)c3cc2C(N)=O)cc(OC)c1OC	active: 68%
Cc1cc([N+](=O)[O-])c2c(c1C)C1C=CCC1C(c1ccccn1)N2 (stereo unspecified)	inconclusive: 90%
Cc1cc(NC(=O)CSc2nccn2-c2ccc([N+](=O)[O-])cc2)no1	inactive: 96%
Cc1ccc(S(=O)(=O)Oc2ccc(/C=C(/NC(=O)c3ccccc3)C(=O)O)cc2)cc1	inconclusive: 88%
Cn1c(Cn2c(=O)sc3ccccc32)nnc1SCC(=O)NCCc1ccccc1	inactive: 101%
Cn1c2ccc(Cl)cc2c2nc3ccccc3nc21	inconclusive: 87%
O=C(COC(=O)c1cccs1)NCC1CCCCC1	inactive: 97%
CCn1cc(C(=O)O)c(=O)c2cc(F)c(N/N=C/c3ccccc3[N+](=O)[O-])cc21	inactive: 82%
O=C(C1CCCO1)N1CCN(C(=S)NC2CC2)CC1 (stereo unspecified)	inactive: 98%
CCc1nn2cc(C(=O)c3cc(Cl)ccc3O)cnc2c1-c1ccc(F)cc1	inconclusive: 84%
Cc1cc(NC(=O)CCC2CCCCC2)no1	inconclusive: 104%
Fc1cccc(Cl)c1Cn1nnc(-c2ccc3c(c2)OCO3)n1	inconclusive: 97%

Compound	percent activity (GTP binding)
COc1ccc(CC(=O)NNC(=O)c2cnccn2)cc1	inconclusive: 101%
CC1CCN(C(=O)/C(=C\c2cccs2)NC(=O)c2ccccc2)CC1	inactive: 93%
COc1cccc(-c2c(C#N)c(N)nc3c2c(=O)nc2sccn23)c1	inconclusive: 93%
C=CCNC(=O)c1cc2c(=O)n3cc(C)ccc3nc2nc1NCC1CCCO1 (stereo unspecified)	inactive: 89%
COC(=O)CCSCC(=O)Nc1cc(C)on1	inconclusive: 109%
CC(C)Nc1nc(NC(C)C)nc(Nn2cnnc2)n1	inconclusive: 94%
COc1ccc([N+](=O)[O-])cc1NC(=O)Cc1ccc(Cl)cc1	inactive: 98%
O=C(NNC1CC(=O)N(c2cccc(Cl)c2)C1=O)c1cccs1 (stereo unspecified)	inconclusive: 99%
O=C(O)CCCCCCCCCC(=O)c1cccs1	inactive: 97%
CCCNCc1cc(OCC)c(OCC(=O)Nc2ccccc2)cc1Br	inactive: 96%
CCOC(=O)CSc1nc2sc(C)c(C)c2c(=O)n1C	inconclusive: 101%
O=C(CSc1ccc2nnc(-c3ccccn3)n2n1)Nc1nccs1	active: 65%
CCCc1nn(C)c(C(=O)Nc2ccc3ccccc3c2)c1Cl	inactive: 97%
CC(=O)Nc1ccc(SCC(=O)Nc2sccc2C#N)cc1	inconclusive: 94%
O=C(CCc1nc2ccccc2[nH]c1=O)OCC(=O)N1CCc2ccccc21	inactive: 114%
CCOC(=O)c1c(NC(=O)C(=O)N/N=C/c2ccc(O)c(OC)c2)sc2c1CCCCC2	active: 61%
Cc1nn(-c2ccccc2)c(C)c1/C=C/C(=O)OCC(=O)N(C)C1CCS(=O)(=O)C1 (stereo unspecified)	inactive: 97%
Cc1ccc(/C=C/c2nc3ccccc3[nH]2)o1	inconclusive: 96%
CCN(Cc1ccccc1)S(=O)(=O)c1ccc(C(=O)N2CCN(c3nc4ccccc4s3)CC2)cc1	inactive: 102%
Cc1cs/c(=N/C(=S)Nc2ccccc2)n1C	inconclusive: 104%
COc1ccc(-c2nnc(SCC(=O)c3cccs3)o2)cc1	active: 54%

Compound	percent activity (GTP binding)
COc1cccc2c(=O)c3cccc(N)c3[nH]c12	inconclusive: 89%
Cc1ccc(Cl)c(OCCCCN(C)Cc2ccccc2)c1	inconclusive: 104%
COc1ccc2[nH]c3c(=O)n(Cc4ccc(C(=O)N5CCC(C(N)=O)CC5)cc4)c(=S)[nH]c3c2c1	inconclusive: 86%
CCOC(=O)Oc1ccc2oc(C)c(C(=O)OCCOC)c2c1	inactive: 98%
COc1ccc(/C=N/NC(=O)C(N)=O)c(OC)c1OC	inconclusive: 106%
COc1ccc(CCNc2nc(=S)[nH]c3cc(OC)c(OC)cc23)cc1OC	active: 49%
N#Cc1c2c(c(=S)n(-c3ccccc3)c1N)CCCC2	inconclusive: 88%
COc1ccc(Nc2nc(N)nc(CSC(=S)N3CCCCC3)n2)cc1	inconclusive: 90%
CN(C)CCN1C(=O)C(O)=C(C(=O)c2cc3ccccc3o2)C1c1ccccn1 (stereo unspecified)	inconclusive: 91%
Cn1cnnc1Sc1ccc(S(C)(=O)=O)cc1[N+](=O)[O-]	inactive: 99%
CCCCCC1CCC(C(=O)O)CC1 (stereo unspecified)	inconclusive: 110%
Cc1[nH]c2ccccc2c1CCNC(=O)c1ccc2c(c1[N+](=O)[O-])C(=O)c1ccccc1C2=O	inconclusive: 80%
C=CCOc1ccc(C2C(C(=O)c3ccco3)=C(O)C(=O)N2c2nnc(C)s2)cc1 (stereo unspecified)	inactive: 91%
CCCOc1ccc(CCc2n[nH]c(=S)n2-c2ccccc2)cc1	inconclusive: 93%
COCCNC(=O)C(=O)c1cc(C)n(-c2ccc([N+](=O)[O-])cc2)c1C	inconclusive: 94%
Cc1cccc(-n2c(N)c(C(=O)N3CCN(C)CC3)sc2=S)c1	inconclusive: 95%
S=C(Nc1cccc(Cl)c1)N(CCCN1CCCC1)Cc1cccn1Cc1ccc(Cl)cc1	inconclusive: 103%
CC(C)CCNC(=O)CCCCn1c(=O)[nH]c2ccsc2c1=O	inactive: 97%
CCOc1ncccc1C(=O)OCc1cccc([N+](=O)[O-])c1	inactive: 89%
